# From the supplement of paper PMC8728848
# The other results are listed elsewhere or left out.
# B1: Clec49 (Caenorhabditis elegans) (protein)
# chain: MTRLTLLLFGLLGAATAQTCNTGGIYNEQFNRCYQYFTAPAQFSFAEQQCNLLGGHLASVQNGQENALLQSNAANSFKRSNYSDYWIGATDLETSGTWKWTDPSVTFDYSNWQLGEPQSGSDCAIQDKGDGTWSAIGCTSYRPYVCVTPVIMTATCPPITTPIPTTCPTPAPCPIKQCVPSCDQGWTYFSPTDFCYRVYHGEKFNDAEASCVLLGGHLASIHSLTENTFVNNIASCGIKEGKYEHLAWIGMRKVGQDWVWTDGTPSDYFNWAPKQPDNPKKELCVQTAPDLSHDKWYENWNNLECNEVMRAYICKKASIHN
# How the values were obtained:
# Assay in all cases: glycan array binding signal (z-score within array); higher = stronger binding
# Conditions in all cases: glycan notation: IUPAC condensed, linker removed
# [1] = biological target: GlcNAc(b1-4)GlcNAc(b1-4)GlcNAc(b1-4)GlcNAc(b1-4)GlcNAc(b1-4)GlcNAc
# Outline: (§1)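 Columns mapping to the same glycan were averaged after glycan names were converted to IUPAC-condensed notation. The data come from 3228 arrays in the Consortium for Functional Glycomics database, limited to those with an available protein sequence. Binding is reported as a within-array Z-score averaged across arrays of one protein sequence and across linkers.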
# [2] = biological target: GlcNAc(b1-4)[GlcNAc(b1-6)]GalNAc
# Outline: as §1
# [3] = biological target: GlcNAc(b1-6)Gal(b1-4)GlcNAc
# Outline: as §1
# GlcNAc(b1-6)GalNAc = biological target: GlcNAc(b1-6)GalNAc
# Outline: as §1
# [4] = biological target: GlcNAc6S(b1-3)Gal(b1-4)GlcNAc
# Outline: as §1
# Kdn(a2-3)Gal(b1-3)GalNAc = biological target: Kdn(a2-3)Gal(b1-3)GalNAc
# Outline: as §1
# Kdn(a2-3)Gal(b1-3)GlcNAc = biological target: Kdn(a2-3)Gal(b1-3)GlcNAc
# Outline: as §1
# Kdn(a2-3)Gal(b1-4)Glc = biological target: Kdn(a2-3)Gal(b1-4)Glc
# Outline: as §1
# Kdn(a2-3)Gal(b1-4)GlcNAc = biological target: Kdn(a2-3)Gal(b1-4)GlcNAc
# Outline: as §1
# [5] = biological target: Kdn(a2-3)Gal(b1-4)[Fuc(a1-3)]GlcNAc
# Outline: as §1
# Kdn(a2-6)Gal(b1-4)GlcNAc = biological target: Kdn(a2-6)Gal(b1-4)GlcNAc
# Outline: as §1
# [6] = biological target: Man(a1-2)Man(a1-2)Man(a1-3)Man
# Outline: as §1
# [7] = biological target: Man(a1-2)Man(a1-2)Man(a1-6)[Man(a1-3)]Man
# Outline: as §1
# Man(a1-2)Man(a1-3)Man = biological target: Man(a1-2)Man(a1-3)Man
# Outline: as §1
# [8] = biological target: Man(a1-2)Man(a1-3)[Man(a1-2)Man(a1-6)]Man
# Outline: as §1
# [9] = biological target: Man(a1-2)Man(a1-3)[Man(a1-2)Man(a1-6)]Man(a1-6)[Man(a1-2)Man(a1-2)Man(a1-3)]Man
# Outline: as §1
# [10] = biological target: Man(a1-2)Man(a1-3)[Man(a1-2)Man(a1-6)]Man(a1-6)[Man(a1-2)Man(a1-2)Man(a1-3)]Man(b1-4)GlcNAc(b1-4)GlcNAc
# Outline: as §1
# [11] = biological target: Man(a1-2)Man(a1-3)[Man(a1-6)]Man(a1-6)[Man(a1-2)Man(a1-3)]Man(b1-4)GlcNAc(b1-4)GlcNAc
# Outline: as §1
# [12] = biological target: Man(a1-2)Man(a1-6)[Man(a1-3)]Man(a1-6)[Man(a1-2)Man(a1-2)Man(a1-3)]Man
# Outline: as §1
# [13] = biological target: Man(a1-2)Man(a1-6)[Man(a1-3)]Man(a1-6)[Man(a1-2)Man(a1-2)Man(a1-3)]Man(b1-4)GlcNAc(b1-4)GlcNAc
# Outline: as §1
# Man(a1-3)[Man(a1-6)]Man = biological target: Man(a1-3)[Man(a1-6)]Man
# Outline: as §1
# [14] = biological target: Man(a1-3)[Man(a1-6)]Man(a1-6)[Man(a1-2)Man(a1-3)]Man(b1-4)GlcNAc(b1-4)GlcNAc
# Outline: as §1
# [15] = biological target: Man(a1-3)[Man(a1-6)]Man(a1-6)[Man(a1-3)]Man
# Outline: as §1
# [16] = biological target: Man(a1-3)[Man(a1-6)]Man(a1-6)[Man(a1-3)]Man(b1-4)GlcNAc(b1-4)GlcNAc
# Outline: as §1
# [17] = biological target: Man(a1-3)[Man(a1-6)]Man(b1-4)GlcNAc(b1-4)GlcNAc
# Outline: as §1
# [18] = biological target: Man(a1-3)[Man(a1-6)]Man(b1-4)GlcNAc(b1-4)[Fuc(a1-6)]GlcNAc
# Outline: as §1
# Man(a1-6)Man = biological target: Man(a1-6)Man
# Outline: as §1
# Man(b1-4)GlcNAc = biological target: Man(b1-4)GlcNAc
# Outline: as §1
# MurNAc(b1-4)GlcNAc = biological target: MurNAc(b1-4)GlcNAc
# Outline: as §1
# Neu5Ac(a2-3)Gal = biological target: Neu5Ac(a2-3)Gal
# Outline: as §1
# [19] = biological target: Neu5Ac(a2-3)Gal(b1-3)GalNAc
# Outline: as §1
# [20] = biological target: Neu5Ac(a2-3)Gal(b1-3)GalNAc(b1-3)Gal(a1-4)Gal(b1-4)Glc
# Outline: as §1
# [21] = biological target: Neu5Ac(a2-3)Gal(b1-3)GalNAc(b1-4)Gal(b1-4)Glc
# Outline: as §1
# [22] = biological target: Neu5Ac(a2-3)Gal(b1-3)GalNAc(b1-4)[Neu5Ac(a2-3)]Gal(b1-4)Glc
# Outline: as §1
# [23] = biological target: Neu5Ac(a2-3)Gal(b1-3)GalNAc(b1-4)[Neu5Ac(a2-8)Neu5Ac(a2-3)]Gal(b1-4)Glc
# Outline: as §1
# [24] = biological target: Neu5Ac(a2-3)Gal(b1-3)GalNAc6S
# Outline: as §1
# [25] = biological target: Neu5Ac(a2-3)Gal(b1-3)GlcNAc
# Outline: as §1
binder,measurement,setting,value
B1,glycan array binding signal (z-score),[1],-0.849
same,glycan array binding signal (z-score),[2],-0.524
same,glycan array binding signal (z-score),[3],-0.259
same,glycan array binding signal (z-score),GlcNAc(b1-6)GalNAc,-0.472
same,glycan array binding signal (z-score),[4],-0.446
same,glycan array binding signal (z-score),Kdn(a2-3)Gal(b1-3)GalNAc,-0.04
same,glycan array binding signal (z-score),Kdn(a2-3)Gal(b1-3)GlcNAc,-0.418
same,glycan array binding signal (z-score),Kdn(a2-3)Gal(b1-4)Glc,-0.4
same,glycan array binding signal (z-score),Kdn(a2-3)Gal(b1-4)GlcNAc,-0.063
same,glycan array binding signal (z-score),[5],-0.099
same,glycan array binding signal (z-score),Kdn(a2-6)Gal(b1-4)GlcNAc,-0.226
same,glycan array binding signal (z-score),[6],-0.373
same,glycan array binding signal (z-score),[7],-0.455
same,glycan array binding signal (z-score),Man(a1-2)Man(a1-3)Man,0.656
same,glycan array binding signal (z-score),[8],-0.266
same,glycan array binding signal (z-score),[9],-0.181
same,glycan array binding signal (z-score),[10],-0.538
same,glycan array binding signal (z-score),[11],-0.521
same,glycan array binding signal (z-score),[12],-0.477
same,glycan array binding signal (z-score),[13],-0.395
same,glycan array binding signal (z-score),Man(a1-3)[Man(a1-6)]Man,-0.553
same,glycan array binding signal (z-score),[14],-0.268
same,glycan array binding signal (z-score),[15],-0.179
same,glycan array binding signal (z-score),[16],-0.235
same,glycan array binding signal (z-score),[17],-0.617
same,glycan array binding signal (z-score),[18],0.126
same,glycan array binding signal (z-score),Man(a1-6)Man,-0.35
same,glycan array binding signal (z-score),Man(b1-4)GlcNAc,-0.478
same,glycan array binding signal (z-score),MurNAc(b1-4)GlcNAc,-0.504
same,glycan array binding signal (z-score),Neu5Ac(a2-3)Gal,-0.853
same,glycan array binding signal (z-score),[19],-0.4
same,glycan array binding signal (z-score),[20],-0.381
same,glycan array binding signal (z-score),[21],-1.05
same,glycan array binding signal (z-score),[22],1.48
same,glycan array binding signal (z-score),[23],-0.511
same,glycan array binding signal (z-score),[24],-0.492
same,glycan array binding signal (z-score),[25],-0.393
